Measured values reported in paper PMC4336329 (PLoS ONE, 2015).
In all, about 310,000 compounds went through this assay and about 2,200 (0.71%) showed an effect of 50% or more. Effects have a minus sign here. This is one part of the list.

Each molecule was assayed against human ether-à-go-go-related gene (hERG) potassium channel (human, UniProt Q12809) (assay: primary screen, population patch clamp on CHO cells stably expressing hERG).
Sequence of human ether-à-go-go-related gene (hERG) potassium channel (Q12809 whole entry, looked up): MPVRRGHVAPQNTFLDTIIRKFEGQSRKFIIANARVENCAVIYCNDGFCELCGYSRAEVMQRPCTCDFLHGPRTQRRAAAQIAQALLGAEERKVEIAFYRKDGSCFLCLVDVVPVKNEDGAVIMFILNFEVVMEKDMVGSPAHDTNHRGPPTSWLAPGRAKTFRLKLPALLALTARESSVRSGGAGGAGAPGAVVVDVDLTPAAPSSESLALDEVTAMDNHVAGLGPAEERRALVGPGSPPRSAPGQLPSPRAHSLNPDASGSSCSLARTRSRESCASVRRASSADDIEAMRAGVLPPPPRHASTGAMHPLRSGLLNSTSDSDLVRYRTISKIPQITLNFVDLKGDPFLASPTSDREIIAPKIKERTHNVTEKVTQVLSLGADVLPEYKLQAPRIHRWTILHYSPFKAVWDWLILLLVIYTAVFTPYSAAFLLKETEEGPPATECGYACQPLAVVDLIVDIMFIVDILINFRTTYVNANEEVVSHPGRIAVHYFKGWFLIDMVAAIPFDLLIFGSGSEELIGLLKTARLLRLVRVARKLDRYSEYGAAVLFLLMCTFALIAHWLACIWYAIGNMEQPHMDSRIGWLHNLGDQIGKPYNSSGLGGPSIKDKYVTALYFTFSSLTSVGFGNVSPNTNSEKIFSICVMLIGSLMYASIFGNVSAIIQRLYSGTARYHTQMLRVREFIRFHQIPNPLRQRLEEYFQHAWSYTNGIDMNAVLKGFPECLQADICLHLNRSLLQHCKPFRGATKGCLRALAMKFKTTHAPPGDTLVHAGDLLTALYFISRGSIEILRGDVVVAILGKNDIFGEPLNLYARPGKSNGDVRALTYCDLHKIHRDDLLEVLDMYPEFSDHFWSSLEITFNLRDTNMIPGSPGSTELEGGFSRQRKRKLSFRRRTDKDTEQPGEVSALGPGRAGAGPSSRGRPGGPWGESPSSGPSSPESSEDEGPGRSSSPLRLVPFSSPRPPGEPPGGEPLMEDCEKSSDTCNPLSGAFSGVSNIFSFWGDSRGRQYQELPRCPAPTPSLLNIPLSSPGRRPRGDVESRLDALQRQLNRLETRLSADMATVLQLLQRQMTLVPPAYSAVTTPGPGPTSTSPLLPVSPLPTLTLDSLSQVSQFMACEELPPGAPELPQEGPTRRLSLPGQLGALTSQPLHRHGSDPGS

SMILES	hERG current change (%, negative = inhibition) at 1uM [%]
CN(C)S(=O)(=O)N1CCCN(S(=O)(=O)N(C)C)CC1	-3.87
Cc1ccc(C(=O)N/C(=C\c2cccs2)C(=O)N2CCN(C)CC2)cc1C	-77.2
O=C(Nc1cccc2ccccc12)OC1C=CS(=O)(=O)C1 (stereo not drawn)	11.7
CC(NC1CCCCC1)C(=O)NN=C(c1ccccc1)c1ccccc1 (stereo not drawn)	13
[O-][n+]1cccc2ncc3cscc3c21	15.3
COc1ccc(S(=O)(=O)N(Cc2cc3cc(C)ccc3[nH]c2=O)CC2CCCO2)cc1 (stereo not drawn)	-1.03
CN(C)C(=O)N1CCC(C(=O)NC2CCCCCCC2)CC1	9.2
NS(=O)(=O)c1ccc(NC(=O)COC(=O)c2ccco2)cc1	15.2
O=C(c1cc(C(=O)c2ccco2)cc(C(=O)c2ccco2)c1)c1ccco1	11.8
O=[N+]([O-])c1cc(Cl)ccc1N1CCCC1	9.55
Cc1cc(N/N=C\c2ccccc2)nc(-c2ccccc2O)n1	13.4
CCN(CC)c1ccc2c(C)c(CN3CCOCC3)c(=O)oc2c1	9.3
O=C(CCC1CCCN(C(=O)c2ccc(F)c(F)c2)C1)N1CCN(c2ccccn2)CC1 (stereo not drawn)	7.98
Cn1c(CNC(=O)C(C)(C)C)nc2ccccc21	-5.61
Cc1[nH]n(-c2cccc(Cl)c2)c(=O)c1C=NC12CN3CN(CN(C3)C1)C2	1.89
O=C(NC(c1ccc(Cl)cc1)P(=O)(Oc1ccccc1)Oc1ccccc1)OCc1ccccc1 (stereo not drawn)	9.57
O=C(NCCCN1CCCCC1)c1ccc2c(=O)n(CCc3ccccc3)c(=O)[nH]c2c1	-7.22
O=C(NCCCN1CCCC1=O)c1cccc(NS(=O)(=O)c2ccc(Br)cc2)c1	3.02
COc1cc2c(cc1OC)C1=C(C#N)CCC(=NC(=O)c3ccco3)N1CC2	19.1
COc1ccc(S(=O)(=O)CC(=O)c2cc3cc(Br)ccc3oc2=O)cc1	1.37
Cn1nc(C(=O)N2CCN(C(c3ccccc3)c3ccccc3)CC2)c2ccccc2c1=O	2.3
COc1cccc(C(=O)NCC(=O)N/N=C/c2cccc(OC(=O)c3ccc([N+](=O)[O-])cc3)c2)c1	7.67
CS(=O)(=O)N(CC(=O)NC1CC1)c1cccc(F)c1	15.7

SMILES	hERG current change (%, negative = inhibition) at 1uM [%]
CC(=O)N1CCCC(C(=O)c2ccc3c4c(cccc24)CC3)C1 (stereo not drawn)	8.66
Cc1ccc(OCC(=O)Nc2ccccc2N2CCOCC2)c(C)c1	8.96
Cc1ccc(S(=O)(=O)N2c3ccccc3OCC2c2ccccc2)cc1 (stereo not drawn)	15.7
CCOC(=O)C1CCN(S(=O)(=O)c2ccc(NC(C)=O)c(Cl)c2)CC1	6.61
COc1cc2c(C(=O)NCc3ccccn3)cn(C)c(=O)c2cc1OC	16.2
CC(C)(C)NS(=O)(=O)c1ccc(OCC(=O)NCC2CCCO2)cc1 (stereo not drawn)	2.34
CCOC(=O)c1cc2occc2n1CCCN1C(=O)c2ccccc2C1=O	2.89
CC(Oc1ccc(Cl)cc1Cl)C(=O)Nc1ccc(OCC(=O)O)cc1 (stereo not drawn)	23.3
O=C(O)c1ccc(OCC(O)Cn2c3ccccc3c3ccccc32)cc1 (stereo not drawn)	-5.97
COc1ccc(NCCNc2ccc(OC)cc2)cc1	-2.1
NC(=O)c1ccc(NC(=O)Cc2cccs2)cc1	11.2
COC(=O)C(C)Sc1ccc2nnc(-c3cccc(F)c3)n2n1 (stereo not drawn)	-6.02
CN(C(=O)c1cccc(C(=O)N(C)c2ccccc2)c1)c1ccccc1	9.07
COCCNC(=O)C(C)N1c2cccc3cccc(c23)S1(=O)=O (stereo not drawn)	19.1
O=C(Cc1c(O)c2ccccc2[nH]c1=O)NCc1ccc(F)cc1	14.6
O=C1CC(NCc2ccc(F)cc2)C(=O)N1c1ccccc1 (stereo not drawn)	10.7
COc1cccc(-n2ccnc2SCC(=O)Nc2cc(C)on2)c1	12.2
CN1CCN(C(=O)CCc2nnc3ccc(N4CCC5(CC4)OCCO5)nn23)CC1	16.9
O=C(CN1CCCc2ccccc21)N/N=C/c1ccc(O)cc1O	8.42
CC(C)C(=O)Nc1nnc(SCc2cccc(F)c2)s1	10.8
Cl.N=C(c1cccc([N+](=O)[O-])c1)N1CCCCC1	6.2
CSCCC(NC(=O)COc1ccccc1)C(=O)N1CCOCC1 (stereo not drawn)	1.84
Cc1ccc(-c2nc(S(=O)(=O)c3ccc(F)cc3)c(SCC(=O)NCC3CCCO3)o2)cc1 (stereo not drawn)	14.5

SMILES	hERG current change (%, negative = inhibition) at 1uM [%]
CCOC(=O)N1CCN(C(=O)c2ccc(Cn3c(=S)[nH]c4ccc(Br)cc4c3=O)cc2)CC1	15
NC(=O)CSc1nc(C2CC2)nc2sc3c(c12)CCCC3	12.5
C=CCOc1nc2sc(C)c(C)c2c(=O)n1-c1ccccc1	9.76
c1ccc(-c2nnc(-c3ccccn3)c(-c3ccccn3)n2)nc1	12.3
Cc1cc(C)cc(NCCC#N)c1	8.65
CCOC(=O)c1sc(N(Cc2ccccc2)C(=O)COC(=O)c2cnccn2)nc1C	8.94
Cc1cc(/C=N/NC(=O)c2ccccn2)c(C)n1-c1cccc([N+](=O)[O-])c1	18.4
Cc1ccccc1CSCC(=O)NC1CCCC1	11.1
COCCOc1cc2ncnc(N3CCC(C(=O)O)CC3)c2cc1OCCOC	5.49
COc1cc(Nc2ccccn2)cc(C(=O)Nc2cccc(C(F)(F)F)c2)c1	9.8
O=[N+]([O-])c1cccc(CNC2CCCCCC2)c1	1.2
COc1cccc(/C=C/C(=O)OCC(=O)c2cc(C)n(CC3CCCO3)c2C)c1OC (stereo not drawn)	5.3
CCNC(=S)N1CCN(c2ccccn2)CC1	10.3
Cn1c2ccccc2c2n[nH]c(=S)nc21	12.9
Cc1ccccc1CN1CCC(C(=O)Nc2ccc(Oc3cccnc3)cc2)CC1	9.81
COC(C(=O)N/N=C(\C)c1ccc(C)cc1)c1ccccc1 (stereo not drawn)	8.53
O=C(Nc1ccc2c(c1)OCO2)c1cc(-c2ccncc2)nc2ccccc12	2.35
O=C(/C=C/c1ccccc1)OCC(=O)c1ccc[nH]1	15.7
CC(N)C12CC3CC(CC(C3)C1)C2.Cl (stereo not drawn)	14.2
O=C(Nc1ccccn1)[C@@H]1CCC(=O)N1C(=O)OCc1ccccc1	15.7
O=C(CCn1nc(-c2ccccc2)c2ccccc2c1=O)Nc1cccnc1	10.2
CN1CCC(OC(=O)COc2ccc(C(C)(C)C)cc2)CC1.Cl	-16.3
CCOC(=O)C1(Cc2cccc(OC)c2)CCN(Cc2cnc(SC)nc2)CC1	2.25

SMILES	hERG current change (%, negative = inhibition) at 1uM [%]
O=C(NNC1CC(=O)N(c2cccc(Cl)c2)C1=O)c1cccs1 (stereo not drawn)	6.67
CCOC(=O)c1ccc(NC(=S)N2CCSC2c2c(F)cc(F)cc2F)cc1 (stereo not drawn)	4.7
Cc1ccc(F)cc1NC(=O)N1CCCN(C(=O)OC(C)(C)C)CC1	-0.333
CCn1cc(S(=O)(=O)c2ccc(OC)cc2)c(=O)c2cc(OC)ccc21	13.2
Cc1ccc(C(=O)N2CCCCC2)cc1S(=O)(=O)N1CCCC1	14.3
Cc1ccc(S(=O)(=O)NC2CCC(C(=O)O)CC2)cc1 (stereo not drawn)	9.17
COC(=O)C1CCN(C(=O)C2CCC(=O)N(CCCc3ccccc3)C2)CC1 (stereo not drawn)	14.9
O=c1ncn(-c2ccccc2C(F)(F)F)c2ncccc12	9.46
Cc1cc(NC(=O)CC(C)C)c(=O)n(Cc2cccc(F)c2)c1	11.9
CCOC(OCC)c1cn(Cc2ccc3c(c2)C(=O)c2ccccc2C3=O)nn1	19.1
CCOc1ccccc1NC(=O)CCNS(=O)(=O)c1cccc2nsnc12	9.61
COC(=O)c1[nH]c2ccccc2c1NC(=O)CN1CCN(C(=O)c2ccco2)CC1	-3.88
CCOC(=O)CC(c1ccc(N)cc1)n1c(C)ccc1C (stereo not drawn)	13.2
CCCc1nnc(SCC(=O)Nc2nccs2)o1	12.9
O=C(NCc1ccccc1F)C1CCCN1C(=O)Nc1ccc(Cl)cc1 (stereo not drawn)	11.4
COc1ccc(-c2nnc3ccc(SCC(=O)N4CCCC4)nn23)cc1	3.13
COc1cc(C(=O)Nc2ccc3c(c2)ncn3C)cc(OC)c1OC	16.6
O=C(CNC(=S)NC(=O)c1ccccc1)c1ccccc1	10.1
Cc1ccc(S(=O)(=O)NNC(=O)c2ccncc2)cc1[N+](=O)[O-]	7.42
O=C(CSc1nnc(C2CC2)n1Cc1ccccc1)c1ccc(S(=O)(=O)N2CCOCC2)cc1	2.7
Cc1ccc(S(=O)(=O)N2CCN(S(=O)(=O)N3CCCCC3)CC2)cc1C	9.57
